The record followed here is publication PMC9911399, “Two distinct binding modes provide the RNA-binding protein RbFox with extraordinary sequence specificity”.

T1: RBFOX1 RRM RbFoxmut (Fox-RRM*) (Homo sapiens, UniProt Q9NWB1 109-208, R118D;E147R;N151S;E152T)
T1 sequence: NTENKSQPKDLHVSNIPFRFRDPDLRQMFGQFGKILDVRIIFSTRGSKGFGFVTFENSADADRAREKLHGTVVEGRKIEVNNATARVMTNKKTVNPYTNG

B1: GCCCCAU (DNA:RNA)
RNA: GGGAGACCGGAAUUCAGAUUGUCCGCCCCAUUUAAAUCCCGUCGUAGCCACCA
DNA 1: CAATCTGAATTCCGGTCTCCC
DNA 2: TGGTGGCTACGACGGGATT
B2: GUGCUCC (DNA:RNA)
RNA: B1 RNA with C26U, C27G, C29U, A30C, U31C
DNA 1: CAATCTGAATTCCGGTCTCCC
DNA 2: TGGTGGCTACGACGGGATT
B3: CAAGCAU (DNA:RNA)
RNA: B1 RNA with G25C, C26A, C27A, C28G
DNA 1: CAATCTGAATTCCGGTCTCCC
DNA 2: TGGTGGCTACGACGGGATT
B4: UAUGAAU (DNA:RNA)
RNA: B1 RNA with G25U, C26A, C27U, C28G, C29A
DNA 1: CAATCTGAATTCCGGTCTCCC
DNA 2: TGGTGGCTACGACGGGATT
B5: UCACAGC (DNA:RNA)
RNA: B1 RNA with G25U, C27A, C29A, A30G, U31C
DNA 1: CAATCTGAATTCCGGTCTCCC
DNA 2: TGGTGGCTACGACGGGATT
B6: UACCAUG (DNA:RNA)
RNA: B1 RNA with G25U, C26A, C29A, A30U, U31G
DNA 1: CAATCTGAATTCCGGTCTCCC
DNA 2: TGGTGGCTACGACGGGATT
B7: UACCUAG (DNA:RNA)
RNA: B1 RNA with G25U, C26A, C29U, U31G
DNA 1: CAATCTGAATTCCGGTCTCCC
DNA 2: TGGTGGCTACGACGGGATT
B8: CAAAACU (DNA:RNA)
RNA: B1 RNA with G25C, C26A, C27A, C28A, C29A, A30C
DNA 1: CAATCTGAATTCCGGTCTCCC
DNA 2: TGGTGGCTACGACGGGATT
B9: UCCGACC (DNA:RNA)
RNA: B1 RNA with G25U, C28G, C29A, A30C, U31C
DNA 1: CAATCTGAATTCCGGTCTCCC
DNA 2: TGGTGGCTACGACGGGATT
B10: UUGCUGA (DNA:RNA)
RNA: B1 RNA with G25U, C26U, C27G, C29U, A30G, U31A
DNA 1: CAATCTGAATTCCGGTCTCCC
DNA 2: TGGTGGCTACGACGGGATT
B11: CUUAACU (DNA:RNA)
RNA: B1 RNA with G25C, C26U, C27U, C28A, C29A, A30C
DNA 1: CAATCTGAATTCCGGTCTCCC
DNA 2: TGGTGGCTACGACGGGATT
B12: GCACCUG (DNA:RNA)
RNA: B1 RNA with C27A, A30U, U31G
DNA 1: CAATCTGAATTCCGGTCTCCC
DNA 2: TGGTGGCTACGACGGGATT
B13: CGGAUUC (DNA:RNA)
RNA: GGGAGACCGGAAUUCAGAUUGUCCCGGAUUCUUAAAUCCCGUCGUAGCCACCA
DNA 1: CAATCTGAATTCCGGTCTCCC
DNA 2: TGGTGGCTACGACGGGATT
B14: AUAAGGC (DNA:RNA)
RNA: B13 RNA with C25A, G26U, G27A, U29G, U30G
DNA 1: CAATCTGAATTCCGGTCTCCC
DNA 2: TGGTGGCTACGACGGGATT
B15: GACUCCC (DNA:RNA)
RNA: B1 RNA with C26A, C28U, A30C, U31C
DNA 1: CAATCTGAATTCCGGTCTCCC
DNA 2: TGGTGGCTACGACGGGATT
B16: GUCGGUG (DNA:RNA)
RNA: B1 RNA with C26U, C28G, C29G, A30U, U31G
DNA 1: CAATCTGAATTCCGGTCTCCC
DNA 2: TGGTGGCTACGACGGGATT
B17: AUAAAAU (DNA:RNA)
RNA: B1 RNA with G25A, C26U, C27A, C28A, C29A
DNA 1: CAATCTGAATTCCGGTCTCCC
DNA 2: TGGTGGCTACGACGGGATT
B18: UCCUUGA (DNA:RNA)
RNA: B1 RNA with G25U, C28U, C29U, A30G, U31A
DNA 1: CAATCTGAATTCCGGTCTCCC
DNA 2: TGGTGGCTACGACGGGATT
B19: GUAAUGA (DNA:RNA)
RNA: B13 RNA with C25G, G26U, G27A, U30G, C31A
DNA 1: CAATCTGAATTCCGGTCTCCC
DNA 2: TGGTGGCTACGACGGGATT
B20: UGGAGUG (DNA:RNA)
RNA: B13 RNA with C25U, U29G, C31G
DNA 1: CAATCTGAATTCCGGTCTCCC
DNA 2: TGGTGGCTACGACGGGATT
B21: AACAAGA (DNA:RNA)
RNA: B13 RNA with C25A, G26A, G27C, U29A, U30G, C31A
DNA 1: CAATCTGAATTCCGGTCTCCC
DNA 2: TGGTGGCTACGACGGGATT
B22: GUCUGAU (DNA:RNA)
RNA: B1 RNA with C26U, C28U, C29G
DNA 1: CAATCTGAATTCCGGTCTCCC
DNA 2: TGGTGGCTACGACGGGATT
B23: AGACUUG (DNA:RNA)
RNA: B13 RNA with C25A, G27A, A28C, C31G
DNA 1: CAATCTGAATTCCGGTCTCCC
DNA 2: TGGTGGCTACGACGGGATT
B24: CGUCAGC (DNA:RNA)
RNA: B13 RNA with G27U, A28C, U29A, U30G
DNA 1: CAATCTGAATTCCGGTCTCCC
DNA 2: TGGTGGCTACGACGGGATT
B25: UGUAGCG (DNA:RNA)
RNA: B13 RNA with C25U, G27U, U29G, U30C, C31G
DNA 1: CAATCTGAATTCCGGTCTCCC
DNA 2: TGGTGGCTACGACGGGATT
B26: UUCACAA (DNA:RNA)
RNA: B1 RNA with G25U, C26U, C28A, U31A
DNA 1: CAATCTGAATTCCGGTCTCCC
DNA 2: TGGTGGCTACGACGGGATT
B27: AAAGAGG (DNA:RNA)
RNA: GGGAGACCGGAAUUCAGAUUGUCCAAAGAGGUUAAAUCCCGUCGUAGCCACCA
DNA 1: CAATCTGAATTCCGGTCTCCC
DNA 2: TGGTGGCTACGACGGGATT
B28: CGUGGGC (DNA:RNA)
RNA: B13 RNA with G27U, A28G, U29G, U30G
DNA 1: CAATCTGAATTCCGGTCTCCC
DNA 2: TGGTGGCTACGACGGGATT
B29: GUCGAUC (DNA:RNA)
RNA: B27 RNA with A25G, A26U, A27C, G30U, G31C
DNA 1: CAATCTGAATTCCGGTCTCCC
DNA 2: TGGTGGCTACGACGGGATT
B30: AUGUCUU (DNA:RNA)
RNA: B13 RNA with C25A, G26U, A28U, U29C, C31U
DNA 1: CAATCTGAATTCCGGTCTCCC
DNA 2: TGGTGGCTACGACGGGATT
B31: GGAAGCG (DNA:RNA)
RNA: B27 RNA with A25G, A26G, G28A, A29G, G30C
DNA 1: CAATCTGAATTCCGGTCTCCC
DNA 2: TGGTGGCTACGACGGGATT

Numbering of substitutions follows the chain as printed; changes in the protein carry UniProt numbers. Some of the results follow.

The assay deals with T1, RBFOX1 RRM RbFoxmut (Fox-RRM*). The experiment in a line: EMSA; HiTS-Eq, 1 nM pool, 10 min; buffer printed only for the single-RNA assays: 10 mM Tris pH 7.5, 150 mM NaCl, 3.4 mM EDTA, 0.001% NP-40, 30 C. As to conditions: tags: His6 N-terminal (pET28a); label: 5' 32P. Summed up: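 Purified RbFox RRM, wild type or mutant, was incubated for 10 min in 50 µL with 1 nM of a 5′-radiolabelled RNA pool carrying 7 randomized nucleotides, whose flanks were annealed to DNA oligonucleotides, over a series of increasing protein concentrations. Unbound RNA was resolved on 8% native PAGE, cut out, reverse-transcribed, barcoded by PCR and sequenced on an Illumina HiSeq 2500. Relative association constants were derived from changes in read counts for each RNA species versus the control reaction and normalised to the cognate motif.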
On to B1, for which the binding signal is 0.0725 KA relative to UGCAUGU.

As to B2, the binding signal is 0.0573 KA relative to UGCAUGU.

Consider B3, for which the binding signal was 0.122 KA relative to UGCAUGU.

As to B4, the binding signal is 0.122 KA relative to UGCAUGU.

For B5, the binding signal was 0.0611 KA relative to UGCAUGU.

For B6, the binding signal was 0.0835 KA relative to UGCAUGU.

As to B7, the binding signal was 0.11 KA relative to UGCAUGU.

Take B8: the binding signal is 0.0848 KA relative to UGCAUGU.

As to B9, the binding signal is 0.0323 KA relative to UGCAUGU.

Turning to B10, the binding signal is 0.126 KA relative to UGCAUGU.

For the molecule B11, the binding signal is 0.0937 KA relative to UGCAUGU.

Consider B12, for which the binding signal was 0.112 KA relative to UGCAUGU.

B13: the binding signal was 0.117 KA relative to UGCAUGU.

Take B14: the binding signal was 0.0949 KA relative to UGCAUGU.

Take B15: the binding signal was 0.0539 KA relative to UGCAUGU.

For B16, the binding signal is 0.161 KA relative to UGCAUGU.

Turning to B17, the binding signal was 0.0958 KA relative to UGCAUGU.

Consider B18, for which the binding signal was 0.106 KA relative to UGCAUGU.

B19: the binding signal was 0.121 KA relative to UGCAUGU.

Take B20: the binding signal was 0.45 KA relative to UGCAUGU.

For B21, the binding signal is 0.058 KA relative to UGCAUGU.

On to B22, for which the binding signal was 0.092 KA relative to UGCAUGU.

Consider B23, for which the binding signal was 0.148 KA relative to UGCAUGU.

In the case of B24, the binding signal was 0.126 KA relative to UGCAUGU.

For the molecule B25, the binding signal was 0.262 KA relative to UGCAUGU.

Consider B26, for which the binding signal was 0.0861 KA relative to UGCAUGU.

As to B27, the binding signal is 0.0794 KA relative to UGCAUGU.

Take B28: the binding signal was 0.0996 KA relative to UGCAUGU.

As to B29, the binding signal was 0.0619 KA relative to UGCAUGU.

B30: the binding signal is 0.0916 KA relative to UGCAUGU.

Take B31: the binding signal was 0.0914 KA relative to UGCAUGU.
